Some of the results follow. Single values are uncertain, as repeats are few or missing.
Tested on: WM451Lu
Test: cell count relative to DMSO control; melanoma cells; higher = more viable cells
Details: library dose: low library concentration; 72 h
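Also: cell number obtained by counting DAPI-stained nuclei in high-throughput microscope images with image analysis software, screen run in 1,536-well plates.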

SMILES | cell count
O=C(O)c1ccc2c(c1)nc(Nc1cccc(Cl)c1)c1ccncc12 + CC(C)CCN1c2nc(Nc3cc(F)c(O)c(F)c3)ncc2N(C)C(=O)C1C [BID1870] (first compound 0.4 µM, partner dose 0.2 µM) | 85.4%
O=C(Nc1cc(C(F)(F)F)cc(C(F)(F)F)c1)c1cc(Cl)ccc1O + CCCCCCCCCCCCCCCCCCOP(=O)([O-])OC1CC[N+](C)(C)CC1 [Perifosine] (first compound 0.016 µM, partner dose 0.4 µM) | 117%
O=C(O)c1ccc2c(c1)nc(Nc1cccc(Cl)c1)c1ccncc12 + C=C(c1ccc(C(=O)O)cc1)c1cc2c(cc1C)C(C)(C)CCC2(C)C [Bexarotene] (first compound 0.4 µM, partner dose 2 µM) | 69.8%
O=C(O)c1ccc2c(c1)nc(Nc1cccc(Cl)c1)c1ccncc12 + N#Cc1c(O)c2c(-c3ccc(-c4ccccc4O)cc3)csc2[nH]c1=O [A769662] (first compound 0.4 µM, partner dose 2 µM) | 92.9%
O=C(Nc1cc(C(F)(F)F)cc(C(F)(F)F)c1)c1cc(Cl)ccc1O + O=c1[nH]nc(Sc2ncc([N+](=O)[O-])s2)n1-c1ccc2c(c1)OCCO2 [BI78D3] (first compound 0.016 µM, partner dose 0.2 µM) | 107%
O=C(O)[C@@H]1[O][Sb](=[O])([O][Sb]2(=[O])[O][C@H]([C@H](O)CO)[C@H](O)[C@H](C(=O)O)[O]2)[O][C@H]([C@H](O)CO)[C@@H]1O (stereo partly specified) [stibogluconate] + COc1cc2ncnc(Nc3ccc(Oc4ccccc4)cc3)c2cc1OC [SrcI1] (first compound 2 µM, partner dose 2 µM) | 110%

From the supplement of paper PMC4604168 (melanoma cell lines)
